The record followed here is patent publication US20240262922A1 (Merck KGaA, published 2024).

Assay [1] deals with T1, recombinant human OX40L protein (R&D Systems, cat. #1054-OX) (human, UniProt P23510 51-183).
T1 sequence: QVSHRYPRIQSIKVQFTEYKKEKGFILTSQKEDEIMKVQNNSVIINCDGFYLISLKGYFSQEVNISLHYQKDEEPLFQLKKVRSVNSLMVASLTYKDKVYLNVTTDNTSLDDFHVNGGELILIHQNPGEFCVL
In words: cell-based or functional assay.

Another assay concerns the target T2, AVI-GST-His6-hOX40L (human, UniProt P23510 51-183).
T2 sequence: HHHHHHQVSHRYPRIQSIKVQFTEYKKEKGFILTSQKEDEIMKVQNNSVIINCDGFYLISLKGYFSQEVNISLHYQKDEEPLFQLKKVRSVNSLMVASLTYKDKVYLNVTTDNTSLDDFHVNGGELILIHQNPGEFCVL
In words: cell-based or functional assay.

Assay [2] deals with T1, recombinant human OX40L protein (R&D …). In words: SPR steady state affinity to human OX40L; first of two numbers in the cell. How it is done:
(§1) Recombinant OX40L proteins (human OX40L protein, R&D systems, cat. #1054-OX; cynomolgus monkey OX40L, Novoprotein cat. #CP72) were immobilized onto Biacore CM5 sensor chips and anti-OX40L antibodies were bound to this surface at a range of concentrations. The response at steady state was measured with a Biacore T200 instrument (GE Healthcare) and plotted against the concentration of antibody and fit to a 1:1 binding model. The steady state KD was determined as the antibody concentration at a response equal to half the maximal response (Rₘₐₓ).

Assay [3] shares this target. In words: SPR steady state affinity to human OX40L; second of two numbers in the cell. How it is done:
as §1

Assay [4] concerns the target T3, full-length human OX40L on the cell surface (human, UniProt P23510 1-183).
T3 construct: also called CHO-S-huOX40L; OX40L on MDDCs
T3 sequence: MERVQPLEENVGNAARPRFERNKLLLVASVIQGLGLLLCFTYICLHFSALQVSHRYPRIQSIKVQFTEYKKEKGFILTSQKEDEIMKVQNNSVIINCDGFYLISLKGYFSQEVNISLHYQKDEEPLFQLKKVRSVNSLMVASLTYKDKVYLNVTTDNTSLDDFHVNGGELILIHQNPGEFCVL
In words: cellular binding to human OX40L (flow cytometry; cells not given). On the technique in general: A flow cytometer gives signals particle by particle.

The target in assay [5] is T1, recombinant human OX40L protein (R&D …). In words: SPR steady state, Biacore T200; OX40L immobilised on CM5, fusion protein in solution. How it is done: as §1
Background: In SPR one partner is held on a chip, and binding of the other changes the refractive index at the surface.

Assay [6] shares this target. Briefly: SPR steady state affinity to human OX40L. On the procedure: as §1

Substitutions are numbered along the chain they refer to.

B1: CTLA4_anti OX40L fusion protein 98C01 (Fc fusion)
heavy: [sequence of about 120 residues not given]EPKSSDKTHTCPPCPAPPVAGPSVFLFPPKPKDTLMISRTPEVTCVVVDVSHEDPEVKFNWYVDGVEVHNAKTKPREEQYNSTYRVVSVLTVLHQDWLNGKEYKCAVSNKALPSSIEKTISKAKGQPREPQVYTLPPSREEMTKNQVSLTCLVKGFYPSDIAVEWESNGQPENNYKTTPPVLDSDGSFFLYSKLTVDKSRWQQGNVFSCSVMHEALHNHYTQKSLSLSPGAGGGGSGGGGSGGGGSQVQLQESGPGLVKPSETLSLTCTVSGGSISSSSYYWGWIRQPPGKGLEWIGGIGSVDYSGNTYYKPSLKSRVTISVDTSKNQFSLKLSSVTAADTAVYHCARHRGIYFFDYWGQGTLVTVSSASTKGPSVFPLAPSSKSTSGGTAALGCLVKDYFPEPVTVSWNSGALTSGVHTFPAVLQSSGLYSLSSVVTVPSSSLGTQTYICNVNHKPSNTKVDKRVEPKSC
light: SYELTQPPSVSVALGQTARITCGGNNIENKNVHWYQQKPGQAPVLVIYRDSNRPSGIPERFSGSNSGNTATLSINRAQAGDEADYYCQVWDSNTVVFGGGTKLTVLGQPKAAPSVTLFPPSSEELQANKATLVCLISDFYPGAVTVAWKADSSPVKAGVETTTPSKQSNNKYAASSYLSLTPEQWKSHKSYSCQVTHEGSTVEKTVAPTECS
notes: also called 98C01(1); 98C01 (1)
Turning to B1, the “Primary T cell activation assay IC50” value in assay [1] was found to be 5.1 nM. Further, the “OX40L neutralization/OX40-HEK Reporter IC50” value with AVI-GST-His6-hOX40L stood at 7.5 nM. Also, the Kd (as a rule, the free concentration of one partner at which half of the binding sites on the other are occupied at equilibrium, for simple one-to-one binding) was found to be 72.3 nM in assay [2], 54.7 nM in assay [3] and 72.3 nM in assay [5]. Moreover, in assay [4], the EC50 (in general, the concentration needed to bring the measured effect to its halfway point) came out at 4.2 nM.

B2: CTLA4_anti OX40L fusion protein 98E10 (Fc fusion)
heavy: [sequence of about 120 residues not given]EPKSSDKTHTCPPCPAPPVAGPSVFLFPPKPKDTLMISRTPEVTCVVVDVSHEDPEVKFNWYVDGVEVHNAKTKPREEQYNSTYRVVSVLTVLHQDWLNGKEYKCAVSNKALPSSIEKTISKAKGQPREPQVYTLPPSREEMTKNQVSLTCLVKGFYPSDIAVEWESNGQPENNYKTTPPVLDSDGSFFLYSKLTVDKSRWQQGNVFSCSVMHEALHNHYTQKSLSLSPGAGGGGSGGGGSGGGGSQLQLQESGPGLVKPSETLSLTCTVAGASVSSSSYYWGWIRQSPGKGLEWIGTINYGGSTYHNPSLKRRVTVSVDTSKNQFSLKLTSVTAADTAVYYCARHRGIYHFDYWGQGTLVTVSSASTKGPSVFPLAPSSKSTSGGTAALGCLVKDYFPEPVTVSWNSGALTSGVHTFPAVLQSSGLYSLSSVVTVPSSSLGTQTYICNVNHKPSNTKVDKRVEPKSC
light: B1 light with P8L, K38M, S73T, L103V
notes: also called 98E10(1); 98E10 (1)
B2: the “Primary T cell activation assay IC50” value in assay [1] came to 3.5 nM. Further, the “OX40L neutralization/OX40-HEK Reporter IC50” value with AVI-GST-His6-hOX40L turned out to be 8.3 nM. The Kd in assay [2] was found to be 57.9 nM; in assay [3], 63.9 nM; in assay [5], 57.9 nM. In assay [4], the EC50 was 1.7 nM.

B3: CTLA4_anti OX40L fusion protein 30F02 (Fc fusion)
heavy: [sequence of about 120 residues not given]EPKSSDKTHTCPPCPAPPVAGPSVFLFPPKPKDTLMISRTPEVTCVVVDVSHEDPEVKFNWYVDGVEVHNAKTKPREEQYNSTYRVVSVLTVLHQDWLNGKEYKCAVSNKALPSSIEKTISKAKGQPREPQVYTLPPSREEMTKNQVSLTCLVKGFYPSDIAVEWESNGQPENNYKTTPPVLDSDGSFFLYSKLTVDKSRWQQGNVFSCSVMHEALHNHYTQKSLSLSPGAGGGGSGGGGSGGGGSQLQLQESGPGLVKPSETLSLTCTVSGASISSSNHYWGWGWIRQPPGKGLEWIGSIYYSGNTYYNPSLKSRVTISVDTSKNQFSLKLSSVTAADTAVYYCARHRGSYFFDHWGQGTLVTVSSASTKGPSVFPLAPSSKSTSGGTAALGCLVKDYFPEPVTVSWNSGALTSGVHTFPAVLQSSGLYSLSSVVTVPSSSLGTQTYICNVNHKPSNTKVDKRVEPKSC
light: B1 light with E3V, P8L, E28G, N29D, Y48S, S73T, N75S, A83S, N93S, L103V
notes: also called 30F02 (1)
Regarding B3, the “OX40L neutralization/OX40-HEK Reporter IC50” value in the assay with AVI-GST-His6-hOX40L was above 161 nM. Further, the Kd in assay [6] and in assay [5] was 68.5 nM throughout.
